EPA's CvTdb concentration-time database
The source gives many values for each of these; only a part stands here.

Key:
Rat [1] = assay: concentration in liver after dosing; settings: 8184 h; dosed: 3,3',4,4',5-pentachlorobiphenyl; 1000 mg/kg; oral; Male; Harlan Sprague Dawley
Rat [2] = assay: concentration in liver after dosing; settings: 2208 h; dosed: 3,3',4,4',5-pentachlorobiphenyl; 1000 mg/kg; oral; Female; Harlan Sprague Dawley
Rat [3] = assay: concentration in liver after dosing; settings: 24 h; dosed: 3,3',4,4',5-pentachlorobiphenyl; 1000 mg/kg; oral; Female; F344
Rat [4] = assay: concentration in liver after dosing; settings: 768 h; dosed: 3,3',4,4',5-pentachlorobiphenyl; 1000 mg/kg; oral; Female; Harlan Sprague Dawley
Rat [5] = assay: concentration in liver after dosing; settings: 120 h; dosed: 3,3',4,4',5-pentachlorobiphenyl; 1000 mg/kg; oral; Female; Harlan Sprague Dawley
Rat [6] = assay: concentration in liver after dosing; settings: 3984 h; dosed: 3,3',4,4',5-pentachlorobiphenyl; 1000 mg/kg; oral; Female; F344
Rat [7] = assay: concentration in liver after dosing; settings: 5088 h; dosed: 3,3',4,4',5-pentachlorobiphenyl; 1000 mg/kg; oral; Female; F344
Rat [8] = assay: concentration in liver after dosing; settings: 288 h; dosed: 3,3',4,4',5-pentachlorobiphenyl; 1000 mg/kg; oral; Female; Harlan Sprague Dawley
Rat [9] = assay: concentration in liver after dosing; settings: 8760 h; dosed: 3,3',4,4',5-pentachlorobiphenyl; 1000 mg/kg; oral; Male; Harlan Sprague Dawley
Rat [10] = assay: concentration in brain after dosing; settings: 10 min; dosed: alpha/beta-Thujone mixture; 25 mg/kg; oral; Male; F344
Rat [11] = assay: concentration in brain after dosing; settings: 5 min; dosed: 76231-76-0; 3.0 mg/kg; iv; Female; F344
Rat [12] = assay: concentration in brain after dosing; settings: 2 min; dosed: alpha/beta-Thujone mixture; 50 mg/kg; oral; Male; F344
Rat [13] = assay: concentration in brain after dosing; settings: 3 h; dosed: alpha/beta-Thujone mixture; 50 mg/kg; oral; Male; F344
Rat [14] = assay: concentration in brain after dosing; settings: 6 h; dosed: alpha/beta-Thujone mixture; 25 mg/kg; oral; Female; F344
Rat [15] = assay: concentration in brain after dosing; settings: 12 h; dosed: alpha/beta-Thujone mixture; 25 mg/kg; oral; Female; F344
Rat [16] = assay: concentration in brain after dosing; settings: 10 min; dosed: alpha/beta-Thujone mixture; 25 mg/kg; oral; Female; F344
Rat [17] = assay: concentration in brain after dosing; settings: 10 min; dosed: alpha/beta-Thujone mixture; 50 mg/kg; oral; Female; F344
Rat [18] = assay: concentration in brain after dosing; settings: 2 min; dosed: alpha/beta-Thujone mixture; 25 mg/kg; oral; Female; F344
Rat [19] = assay: concentration in brain after dosing; settings: 5 min; dosed: 76231-76-0; 3.0 mg/kg; iv; Male; F344
Rat [20] = assay: concentration in brain after dosing; settings: 0.25 h; dosed: 76231-76-0; 3.0 mg/kg; iv; Female; F344
Rat [21] = assay: concentration in brain after dosing; settings: 1.5 h; dosed: alpha/beta-Thujone mixture; 50 mg/kg; oral; Female; F344
Rat [22] = assay: concentration in brain after dosing; settings: 0.5 h; dosed: alpha/beta-Thujone mixture; 25 mg/kg; oral; Female; F344
Rat [23] = assay: concentration in brain after dosing; settings: 6 h; dosed: alpha/beta-Thujone mixture; 50 mg/kg; oral; Male; F344
Rat [24] = assay: concentration in brain after dosing; settings: 2 min; dosed: alpha/beta-Thujone mixture; 25 mg/kg; oral; Male; F344
Rat [25] = assay: concentration in brain after dosing; settings: 5 min; dosed: 76231-76-0; 3.0 mg/kg; iv; Male; F344; remark: listed apart in the source
Rat [26] = assay: concentration in brain after dosing; settings: 5 min; dosed: 76231-76-0; 3.0 mg/kg; iv; Female; F344; remark: listed apart in the source
Rat [27] = assay: concentration in plasma after dosing; settings: 1.5 h; dosed: alpha/beta-Thujone mixture; 25 mg/kg; oral; Female; F344
Rat [28] = assay: concentration in plasma after dosing; settings: 3 h; dosed: alpha/beta-Thujone mixture; 25 mg/kg; oral; Male; F344
Rat [29] = assay: concentration in plasma after dosing; settings: 10 min; dosed: 76231-76-0; 3.0 mg/kg; iv; Female; F344
Rat [30] = assay: concentration in plasma after dosing; settings: 3 h; dosed: alpha/beta-Thujone mixture; 50 mg/kg; oral; Female; F344
Rat [31] = assay: concentration in plasma after dosing; settings: 5 min; dosed: alpha/beta-Thujone mixture; 25 mg/kg; oral; Female; F344
Rat [32] = assay: concentration in plasma after dosing; settings: 1.5 h; dosed: alpha/beta-Thujone mixture; 50 mg/kg; oral; Female; F344
Rat [33] = assay: concentration in plasma after dosing; settings: 2 h; dosed: 76231-76-0; 3.0 mg/kg; iv; Male; F344
Rat [34] = assay: concentration in plasma after dosing; settings: 10 min; dosed: alpha/beta-Thujone mixture; 50 mg/kg; oral; Female; F344
Rat [35] = assay: concentration in plasma after dosing; settings: 1.5 h; dosed: alpha/beta-Thujone mixture; 50 mg/kg; oral; Female; F344; remark: listed apart in the source
Rat [36] = assay: concentration in plasma after dosing; settings: 0.5 h; dosed: alpha/beta-Thujone mixture; 50 mg/kg; oral; Female; F344
Rat [37] = assay: concentration in plasma after dosing; settings: 5 min; dosed: alpha/beta-Thujone mixture; 50 mg/kg; oral; Female; F344
Rat [38] = assay: concentration in plasma after dosing; settings: 12 h; dosed: 76231-76-0; 3.0 mg/kg; iv; Male; F344
Rat [39] = assay: concentration in plasma after dosing; settings: 10 min; dosed: 76231-76-0; 3.0 mg/kg; iv; Male; F344
Rat [40] = assay: concentration in plasma after dosing; settings: 0.75 h; dosed: 76231-76-0; 3.0 mg/kg; iv; Female; F344

Clc1ccc(-c2cc(Cl)c(Cl)c(Cl)c2)cc1Cl [3,3',4,4',5-pentachlorobiphenyl]
Settings | concentration in liver [pg/g]
Rat [1] | 679
Rat [2] | 2280
Rat [3] | 14800
Rat [4] | 2600
Rat [5] | 6950
Rat [6] | 1250
Rat [7] | 833
Rat [8] | 8280
Rat [9] | 467

CC(C)[C@]12CC(=O)[C@H](C)[C@H]1C2 [alpha-Thujone]
Settings | concentration in brain [ng/g] | concentration in plasma [ng/mL]
Rat [10] | 212 | –
Rat [11] | 3280 | –
Rat [12] | 25.6 | –
Rat [13] | 728 | –
Rat [14] | 92.7 | –
Rat [15] | 19.7 | –
Rat [16] | 2480 | –
Rat [17] | 3450 | –
Rat [18] | 45 | –
Rat [19] | 3220 | –
Rat [20] | 852 | –
Rat [21] | 1120 | –
Rat [22] | 1070 | –
Rat [23] | 160 | –
Rat [24] | 149 | –
Rat [25] | 2370 | –
Rat [26] | 3090 | –
Rat [27] | – | 131
Rat [28] | – | 98
Rat [29] | – | 303
Rat [30] | – | 256
Rat [31] | – | 552
Rat [32] | – | 262
Rat [33] | – | 18.8
Rat [34] | – | 868
Rat [35] | – | 73.1
Rat [36] | – | 479
Rat [37] | – | 179
Rat [38] | – | 5.32
Rat [39] | – | 277
Rat [40] | – | 48.8
